Results from the supplement of paper PMC10338343.
± gives the standard deviation. Only a part is listed here, and it is no random draw.

tested on: MIWI (PIWIL1) piRISC loaded with piRNA #1 (30 nt); assay: pre-steady-state target cleavage rate (min^-1); MIWI and MILI are mouse PIWI proteins and EfPiwi is from a freshwater sponge; tags in brackets are library labels; higher = faster piRNA-guided slicing of the target; conditions: guide: piRNA #1 5'p-UGAGGUAGUAGGUUGUAUAGUAUCCAGAGG; auxiliary factor: 500 nM mouse GTSF1
Method in brief: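 Cleave-'n-Seq: 1 nM active affinity-purified piRISC with one synthetic guide and 0.1 nM transcribed, DNA-blocked target RNA library were mixed, with or without 500 nM GTSF1 partner protein, in HEPES–potassium acetate buffer at 33 °C for 0–8 or 0–960 min. Uncleaved targets were sequenced and normalised to depth and to weakly complementary targets, three trials were pooled, and k3 was capped at 0.0001 min^-1. The pre-steady-state cleavage rate was fitted […].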

Row | Sequence | pre-steady-state target cleavage rate
1 | GGAGACCUAUCUUUACAACCUACAACCUCA | 0.0147 ± 0.005
2 | GGAGUGGAUACUAUACAACCUCCUACCUCA | 0.833 ± 0.047
3 | GGAGACCUUACUAUUCAUCCUACUACCUCA | 0.53 ± 0.043
4 | GCUCUGGAUACUUUACAACCUACAACCUCA | 0.804 ± 0.05
5 | GGAGACCUAUGUAUACAACCUACUACCUGA | 0.0678 ± 0.013
6 | GGACUGGAUACCAUACAACCUACUACCUCA | 1.59 ± 0.13
7 | CCUCUAGAUACUAUACAACCUACUACCUCA | 2.2 ± 0.13
8 | CCUCUGGAUACUAUACACCCUACUACCUCA | 1.76 ± 0.098
9 | GGAGACCUAUGUAUACAACCUACCACCUCA | 0.205 ± 0.024
10 | GGUCUGGAUACUAUACUACCUAGUACCUCA | 0.389 ± 0.075
11 | GGAGAGGAUCCUAUACAACCUACUACCUCA | 1.51 ± 0.11
12 | GGAGACCAUACUAUACAUCGUACUACCUCA | 0.2 ± 0.023
13 | GGAGACCAUUCAAUACAACCUACUACCUCA | 0.243 ± 0.048
14 | GCUCUGGAUAGCUAUACAACCUACUACCUCA | 0.739 ± 0.042
15 | GGAGACGAUAUCUAUACAACCUACUACCUCA | 1.01 ± 0.064
16 | GGAGACCUUACUAUACAACCUAACUACCUCA | 0.0245 ± 0.0041
17 | GCUCUGGAUACUAUAGAACCUUCUACCUCA | 0.0828 ± 0.013
18 | GGAGACCAUACUAUACUACCUUCUACCUCA | 0.15 ± 0.016
19 | GGACUGGAAACUAUACAACGUACUACCUCA | 0.622 ± 0.067
20 | GGAGUGGAUACUAUACAGCCUACUACCUCA | 0.633 ± 0.027
21 | GCUCUGGAUACUAUAGUUCCUACUACCUCA | 0.191 ± 0.026
22 | GGAGACCUAUCUAUAGAACCUACUAGCUCA | 0.00389 ± 0.0019
23 | GGAGACCUUACUAAACAUCCUACUACCUCA | 0.3 ± 0.036
24 | CCUCUGGAUACUAUACAGCCUACUACCUCA | 0.743 ± 0.03
